Measurements from paper PMC6953066, “A Novel Small Molecule Inhibits Intrahepatocellular Accumulation of Z-Variant Alpha 1-Antitrypsin In Vitro and In Vivo” (Cells, 2019).

Target: the molecule itself
Assay: native gel or EMSA; heat-induced polymerization: 2 µg purified Z-AAT incubated alone, with DMSO or with UFC1 in 4.75% DMSO (50 and 100 molar fold) at 41 °C for seven days, then 7.5% nondenaturing PAGE, 2 h at 100 V on ice

B1: Z-variant alpha 1-antitrypsin (natural protein)
chain: not shown
notes: human alpha 1-antitrypsin, Z variant (E342K), purified from the serum of PiZZ patients; Serum glycoprotein; also called Z-AAT; Z-hAAT; source: purified from PiZZ patients' serum
B1: binds.
